{"source": "the supplement of paper PMC3334620", "note": "Whole data set: some 33,000 sequences, median “E-score (-0.5 to 0.5)” near -0.053, cut for the highest 2% near 0.37. This is one part of the list.", "data": [{"target": "Hap1 (UniProt P0CE41)", "sequence (P0CE41 whole entry, the tested form may be a part)": "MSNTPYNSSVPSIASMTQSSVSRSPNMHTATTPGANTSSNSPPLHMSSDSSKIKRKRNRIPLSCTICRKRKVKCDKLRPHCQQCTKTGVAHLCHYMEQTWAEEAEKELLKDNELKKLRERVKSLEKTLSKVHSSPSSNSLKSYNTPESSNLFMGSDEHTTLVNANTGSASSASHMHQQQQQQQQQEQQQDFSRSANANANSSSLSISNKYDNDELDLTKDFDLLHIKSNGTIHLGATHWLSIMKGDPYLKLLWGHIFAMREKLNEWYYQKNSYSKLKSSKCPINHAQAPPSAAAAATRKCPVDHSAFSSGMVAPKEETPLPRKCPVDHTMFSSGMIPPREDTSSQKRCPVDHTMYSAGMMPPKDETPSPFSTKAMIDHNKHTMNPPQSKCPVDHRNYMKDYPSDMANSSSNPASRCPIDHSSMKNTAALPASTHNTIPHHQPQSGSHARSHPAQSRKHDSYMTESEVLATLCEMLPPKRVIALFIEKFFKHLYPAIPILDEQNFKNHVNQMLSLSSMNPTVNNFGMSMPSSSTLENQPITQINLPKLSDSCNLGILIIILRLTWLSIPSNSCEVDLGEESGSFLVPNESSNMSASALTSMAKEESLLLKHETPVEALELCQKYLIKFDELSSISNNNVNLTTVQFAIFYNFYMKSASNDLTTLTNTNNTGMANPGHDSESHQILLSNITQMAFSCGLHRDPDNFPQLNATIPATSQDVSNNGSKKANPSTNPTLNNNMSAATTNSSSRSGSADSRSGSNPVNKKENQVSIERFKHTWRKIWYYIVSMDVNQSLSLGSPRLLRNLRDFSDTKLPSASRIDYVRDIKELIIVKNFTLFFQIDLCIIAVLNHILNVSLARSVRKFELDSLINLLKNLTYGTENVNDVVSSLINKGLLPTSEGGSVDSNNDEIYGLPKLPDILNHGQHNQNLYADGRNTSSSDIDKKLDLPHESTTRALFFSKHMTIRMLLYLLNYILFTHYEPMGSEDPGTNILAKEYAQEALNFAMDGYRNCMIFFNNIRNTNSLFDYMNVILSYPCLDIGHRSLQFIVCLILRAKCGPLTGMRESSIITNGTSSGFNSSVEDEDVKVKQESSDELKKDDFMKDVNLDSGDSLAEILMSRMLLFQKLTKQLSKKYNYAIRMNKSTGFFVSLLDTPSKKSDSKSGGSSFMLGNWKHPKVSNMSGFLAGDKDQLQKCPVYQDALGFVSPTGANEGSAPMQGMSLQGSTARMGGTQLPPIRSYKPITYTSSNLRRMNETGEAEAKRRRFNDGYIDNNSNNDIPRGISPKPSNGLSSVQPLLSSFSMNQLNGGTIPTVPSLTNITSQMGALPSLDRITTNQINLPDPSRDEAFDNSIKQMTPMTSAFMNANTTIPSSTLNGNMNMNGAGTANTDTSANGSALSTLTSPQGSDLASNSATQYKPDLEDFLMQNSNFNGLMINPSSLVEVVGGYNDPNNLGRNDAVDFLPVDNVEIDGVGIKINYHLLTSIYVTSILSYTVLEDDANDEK", "experiment": "PBM E-score (8-mer binding enrichment) (E-score (-0.5 to 0.5)); higher = stronger / more preferred TF binding; most listed sequences are background and not binding sites", "conditions": "protein concentration: 200 nM; construct: GST-DNA-binding domain", "procedure,_shortened": "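Using PURExpress in vitro transcription/translation, GST-tagged yeast transcription factors were made in full-length or DNA-binding-domain form. These were applied at about 100-200 nM to double-stranded universal all-10-mer Agilent arrays, and bound protein was detected with fluorescent anti-GST. Scans were normalised with masliner before the Universal PBM Analysis Suite assigned E-scores to ungapped eight-base words pooled with their reverse complements.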", "values": [{"sequence": "CATACGCA", "PBM E-score": -0.15}, {"sequence": "GTTGATGA", "PBM E-score": -0.0424}, {"sequence": "ACCTCACC", "PBM E-score": -0.0781}, {"sequence": "TATATAAA", "PBM E-score": -0.024}, {"sequence": "CATTCTCA", "PBM E-score": -0.0441}, {"sequence": "ACTCATGA", "PBM E-score": -0.114}, {"sequence": "AAACTTAT", "PBM E-score": 0.0956}, {"sequence": "AGGCAAGA", "PBM E-score": -0.206}, {"sequence": "TGGGTCAA", "PBM E-score": -0.312}, {"sequence": "CTTTATTA", "PBM E-score": -0.156}, {"sequence": "CGACGACG", "PBM E-score": 0.0664}, {"sequence": "CATCCGCA", "PBM E-score": 0.224}, {"sequence": "CGAAAATA", "PBM E-score": 0.171}, {"sequence": "GAGAGTTA", "PBM E-score": -0.237}, {"sequence": "ATCTCTTC", "PBM E-score": -0.0222}, {"sequence": "ACTCGCGC", "PBM E-score": 0.156}, {"sequence": "AGATCAGC", "PBM E-score": 0.0244}, {"sequence": "CCATTACC", "PBM E-score": 0.0942}, {"sequence": "CGCGACGA", "PBM E-score": 0.0833}, {"sequence": "CAAGCTAG", "PBM E-score": -0.26}, {"sequence": "CAAACACA", "PBM E-score": -0.255}, {"sequence": "AGGTCGCC", "PBM E-score": 0.0823}, {"sequence": "AGAGTAGA", "PBM E-score": 0.0496}, {"sequence": "CACGTTCC", "PBM E-score": -0.115}, {"sequence": "ACCGGTTC", "PBM E-score": 0.369}, {"sequence": "CATCTAGC", "PBM E-score": -0.1}, {"sequence": "ATGAAGCG", "PBM E-score": -0.208}, {"sequence": "ACTCACCC", "PBM E-score": 0.125}, {"sequence": "ACTCCGCC", "PBM E-score": 0.306}, {"sequence": "TAGAACGA", "PBM E-score": -0.235}, {"sequence": "AGGTTCGC", "PBM E-score": -0.00504}, {"sequence": "AATATGTA", "PBM E-score": -0.0953}, {"sequence": "ACGACAGG", "PBM E-score": 0.0149}, {"sequence": "CAAGTGAA", "PBM E-score": -0.178}, {"sequence": "TGAACGAA", "PBM E-score": -0.332}, {"sequence": "ATACACCC", "PBM E-score": 0.145}, {"sequence": "TAATTAAA", "PBM E-score": -0.134}, {"sequence": "GGAGTCCA", "PBM E-score": -0.0702}, {"sequence": "ATCATTGG", "PBM E-score": -0.29}, {"sequence": "CATCCCTC", "PBM E-score": 0.00642}, {"sequence": "TAAATGCA", "PBM E-score": 0.0655}, {"sequence": "AAGAGAAG", "PBM E-score": -0.143}, {"sequence": "AGCGTTGC", "PBM E-score": 0.127}, {"sequence": "AGTCAGAG", "PBM E-score": -0.164}, {"sequence": "TAATCGCA", "PBM E-score": -0.15}, {"sequence": "CAACGGCG", "PBM E-score": 0.157}, {"sequence": "AGTGTTGC", "PBM E-score": -0.105}, {"sequence": "ACTCGGGG", "PBM E-score": 0.288}, {"sequence": "GGACTGTA", "PBM E-score": -0.0223}, {"sequence": "ACATCGCT", "PBM E-score": -0.014}, {"sequence": "CGGCAAAC", "PBM E-score": 0.331}, {"sequence": "AGGTTCCA", "PBM E-score": -0.134}, {"sequence": "AATGCGGT", "PBM E-score": 0.0532}, {"sequence": "CCTCCAGA", "PBM E-score": -0.0419}, {"sequence": "AGGCAGAT", "PBM E-score": -0.176}, {"sequence": "CGTTTTAG", "PBM E-score": -0.114}, {"sequence": "GGACCACA", "PBM E-score": 0.147}, {"sequence": "AAAGTGTT", "PBM E-score": 0.123}, {"sequence": "GCTCAGGA", "PBM E-score": -0.24}, {"sequence": "ACGAAGTA", "PBM E-score": -0.119}, {"sequence": "CACGTACA", "PBM E-score": -0.313}, {"sequence": "AGTCCGCC", "PBM E-score": 0.292}, {"sequence": "ATAGTAAG", "PBM E-score": -0.0903}, {"sequence": "GCGAGTTA", "PBM E-score": 0.0672}, {"sequence": "CAGCTTCG", "PBM E-score": -0.0259}, {"sequence": "GACTTCGA", "PBM E-score": -0.116}, {"sequence": "CGCAACCG", "PBM E-score": 0.222}, {"sequence": "GATTTAGA", "PBM E-score": 0.142}, {"sequence": "AAGCGTAC", "PBM E-score": -0.292}, {"sequence": "ATAGGATG", "PBM E-score": -0.0307}, {"sequence": "AATCTATA", "PBM E-score": -0.0526}, {"sequence": "CGGGGTGA", "PBM E-score": 0.214}, {"sequence": "AGCGAGGC", "PBM E-score": -0.0336}, {"sequence": "CGAGGTTA", "PBM E-score": 0.0616}, {"sequence": "CCTTTTTA", "PBM E-score": -0.0714}, {"sequence": "TGAGGCCA", "PBM E-score": -0.205}, {"sequence": "ACTGTGCA", "PBM E-score": -0.258}, {"sequence": "AGCCTACG", "PBM E-score": -0.141}, {"sequence": "CATTGGAC", "PBM E-score": -0.145}, {"sequence": "CGTAAATC", "PBM E-score": 0.189}, {"sequence": "TCGGTGAA", "PBM E-score": 0.28}, {"sequence": "AAGCTTAC", "PBM E-score": -0.253}, {"sequence": "TAACATGA", "PBM E-score": -0.15}, {"sequence": "AAAACCTC", "PBM E-score": 0.178}, {"sequence": "CGCCCTGC", "PBM E-score": -0.0955}, {"sequence": "GAGGGAGA", "PBM E-score": -0.0322}, {"sequence": "ATTAAGCA", "PBM E-score": -0.0163}, {"sequence": "CAGTGCTC", "PBM E-score": -0.185}, {"sequence": "CGAGCAGC", "PBM E-score": 0.0468}, {"sequence": "GAGGATCA", "PBM E-score": -0.22}, {"sequence": "GTGGTTGA", "PBM E-score": -0.233}, {"sequence": "AGATGGAA", "PBM E-score": -0.0355}, {"sequence": "AATTTAGT", "PBM E-score": 0.0091}, {"sequence": "TGCGGCCA", "PBM E-score": 0.0873}, {"sequence": "CCAAATGG", "PBM E-score": -0.14}, {"sequence": "CGGTTCGC", "PBM E-score": 0.0668}, {"sequence": "AAGGCGTA", "PBM E-score": -0.291}, {"sequence": "ATAGGCTG", "PBM E-score": -0.138}, {"sequence": "AGTCAGGG", "PBM E-score": -0.341}, {"sequence": "AGCCTTGC", "PBM E-score": -0.263}, {"sequence": "ACTATGTC", "PBM E-score": -0.0699}, {"sequence": "GCTTCGAC", "PBM E-score": 0.00236}, {"sequence": "ACGTAGGG", "PBM E-score": -0.174}, {"sequence": "GAAACTTA", "PBM E-score": 0.0651}, {"sequence": "CGTAGAAA", "PBM E-score": -0.0576}, {"sequence": "AGTTTTTA", "PBM E-score": -0.141}, {"sequence": "AGGAAGCA", "PBM E-score": -0.194}, {"sequence": "AGATTCAT", "PBM E-score": -0.161}, {"sequence": "TGAACCCA", "PBM E-score": -0.0651}, {"sequence": "CAGTCGCC", "PBM E-score": -0.0722}]}]}
